Results: the CheMixHub viscosity set
Values joined by “and” are separate entries in the source; they are usually repeats but may differ in a detail not shown here. Equal entries are not always repeated. The source gives many values for each of these; only a part stands here.

Assay: xn = mol fraction of the nth substance listed

C1COCCO1 + O
Conditions	viscosity
311.15 K, 101 kPa, x1 = 0.8686	1.004 mPa·s
311.15 K, 101 kPa, x1 = 0.9092	0.9862 mPa·s
311.15 K, 101 kPa, x1 = 0.976	0.962 mPa·s
311.15 K, 101 kPa, x2 = 0.0145	0.9547 mPa·s
313.15 K, 101 kPa, x1 = 0.2	1.327 mPa·s
313.15 K, 101 kPa, x1 = 0.4	1.273 mPa·s
313.15 K, 101 kPa, x1 = 0.6	1.087 mPa·s
313.15 K, 101.3 kPa, x2 = 0.09407	0.944 mPa·s
313.15 K, 101.3 kPa, x2 = 0.2053	0.9835 mPa·s
313.15 K, 101.3 kPa, x2 = 0.7952	1.376 mPa·s
313.15 K, 101.3 kPa, x2 = 0.8661	1.25 mPa·s and 1.251 mPa·s
313.15 K, 101.3 kPa, x2 = 0.9391	0.9756 mPa·s and 0.9755 mPa·s
313.15 K, 101.3 kPa, x2 = 0.9742	0.7973 mPa·s and 0.7976 mPa·s
313.15 K, 101.32 kPa, x1 = 0.02221	0.7386 mPa·s
313.15 K, 101.32 kPa, x1 = 0.04863	0.863 mPa·s
313.15 K, 101.32 kPa, x1 = 0.08057	0.9919 mPa·s
313.15 K, 101.32 kPa, x1 = 0.5367	1.091 mPa·s
313.15 K, 101.32 kPa, x1 = 0.7953	0.909 mPa·s
313.15 K, 101.32 kPa, x1 = 0.8686	0.9003 mPa·s
313.15 K, 101.32 kPa, x1 = 0.9529	0.883 mPa·s
313.15 K, 101.33 kPa, x1 = 0.0999	1.138 mPa·s
313.15 K, 101.33 kPa, x1 = 0.1999	1.361 mPa·s
313.15 K, 101.33 kPa, x1 = 0.2998	1.377 mPa·s
313.15 K, 101.33 kPa, x1 = 0.3982	1.302 mPa·s
313.15 K, 101.33 kPa, x1 = 0.4981	1.204 mPa·s
313.15 K, 101.33 kPa, x1 = 0.5	1.197 mPa·s
313.15 K, 101.33 kPa, x1 = 0.537	1.166 mPa·s
313.15 K, 101.33 kPa, x1 = 0.5981	1.112 mPa·s
313.15 K, 101.33 kPa, x1 = 0.648	1.069 mPa·s
313.15 K, 101.33 kPa, x1 = 0.6997	1.038 mPa·s
313.15 K, 101.33 kPa, x1 = 0.716	1.023 mPa·s
313.15 K, 101.33 kPa, x1 = 0.795	0.978 mPa·s
313.15 K, 101.33 kPa, x1 = 0.7996	0.9799 mPa·s
313.15 K, 101.33 kPa, x1 = 0.846	0.956 mPa·s
313.15 K, 101.33 kPa, x1 = 0.9	0.943 mPa·s
313.15 K, 101.33 kPa, x1 = 0.918	0.937 mPa·s
316.15 K, 101 kPa, x1 = 0.00206	0.6287 mPa·s
316.15 K, 101 kPa, x1 = 0.00628	0.6488 mPa·s
316.15 K, 101 kPa, x1 = 0.01516	0.691 mPa·s
316.15 K, 101 kPa, x1 = 0.03482	0.7825 mPa·s
316.15 K, 101 kPa, x1 = 0.05303	0.8619 mPa·s
316.15 K, 101 kPa, x1 = 0.07366	0.9433 mPa·s
316.15 K, 101 kPa, x1 = 0.08413	0.9807 mPa·s
316.15 K, 101 kPa, x1 = 0.1114	1.065 mPa·s
316.15 K, 101 kPa, x1 = 0.1433	1.14 mPa·s
316.15 K, 101 kPa, x1 = 0.1726	1.188 mPa·s
316.15 K, 101 kPa, x1 = 0.2065	1.223 mPa·s
316.15 K, 101 kPa, x1 = 0.2501	1.242 mPa·s
316.15 K, 101 kPa, x1 = 0.3029	1.238 mPa·s
316.15 K, 101 kPa, x1 = 0.356	1.215 mPa·s
316.15 K, 101 kPa, x1 = 0.4203	1.173 mPa·s
316.15 K, 101 kPa, x1 = 0.4996	1.11 mPa·s
316.15 K, 101 kPa, x1 = 0.5367	1.08 mPa·s
316.15 K, 101 kPa, x1 = 0.5999	1.033 mPa·s
316.15 K, 101 kPa, x1 = 0.6479	1.002 mPa·s
316.15 K, 101 kPa, x1 = 0.7309	0.9596 mPa·s
316.15 K, 101 kPa, x1 = 0.7621	0.9469 mPa·s
316.15 K, 101 kPa, x1 = 0.7953	0.9348 mPa·s
316.15 K, 101 kPa, x1 = 0.8686	0.9128 mPa·s
316.15 K, 101 kPa, x1 = 0.9092	0.9036 mPa·s
316.15 K, 101 kPa, x1 = 0.976	0.8919 mPa·s
316.15 K, 101 kPa, x2 = 0.0145	0.8898 mPa·s
318.15 K, 101.33 kPa, x1 = 0.0999	1.023 mPa·s
318.15 K, 101.33 kPa, x1 = 0.1999	1.222 mPa·s
318.15 K, 101.33 kPa, x1 = 0.2998	1.241 mPa·s
318.15 K, 101.33 kPa, x1 = 0.3982	1.18 mPa·s
318.15 K, 101.33 kPa, x1 = 0.4981	1.099 mPa·s
318.15 K, 101.33 kPa, x1 = 0.5981	1.02 mPa·s
318.15 K, 101.33 kPa, x1 = 0.6997	0.9556 mPa·s
318.15 K, 101.33 kPa, x1 = 0.7996	0.9063 mPa·s
318.15 K, 101.33 kPa, x1 = 0.9	0.8757 mPa·s
320.15 K, 101 kPa, x1 = 0.00206	0.5855 mPa·s
320.15 K, 101 kPa, x1 = 0.00628	0.5992 mPa·s
320.15 K, 101 kPa, x1 = 0.01516	0.6277 mPa·s
320.15 K, 101 kPa, x1 = 0.03482	0.7054 mPa·s
320.15 K, 101 kPa, x1 = 0.05303	0.782 mPa·s
320.15 K, 101 kPa, x1 = 0.07366	0.8648 mPa·s
320.15 K, 101 kPa, x1 = 0.08413	0.9037 mPa·s
320.15 K, 101 kPa, x1 = 0.1114	0.9936 mPa·s
320.15 K, 101 kPa, x1 = 0.1433	1.066 mPa·s
320.15 K, 101 kPa, x1 = 0.1726	1.113 mPa·s
320.15 K, 101 kPa, x1 = 0.2065	1.144 mPa·s
320.15 K, 101 kPa, x1 = 0.2501	1.159 mPa·s
320.15 K, 101 kPa, x1 = 0.3029	1.158 mPa·s
320.15 K, 101 kPa, x1 = 0.356	1.146 mPa·s
320.15 K, 101 kPa, x1 = 0.4203	1.118 mPa·s
320.15 K, 101 kPa, x1 = 0.4996	1.059 mPa·s
320.15 K, 101 kPa, x1 = 0.5367	1.04 mPa·s
320.15 K, 101 kPa, x1 = 0.5999	0.9961 mPa·s
320.15 K, 101 kPa, x1 = 0.6479	0.9686 mPa·s
320.15 K, 101 kPa, x1 = 0.7309	0.9325 mPa·s
320.15 K, 101 kPa, x1 = 0.7621	0.9195 mPa·s
320.15 K, 101 kPa, x1 = 0.7953	0.9079 mPa·s
320.15 K, 101 kPa, x1 = 0.8686	0.8793 mPa·s
320.15 K, 101 kPa, x1 = 0.9092	0.8647 mPa·s
320.15 K, 101 kPa, x1 = 0.976	0.843 mPa·s
320.15 K, 101 kPa, x2 = 0.0145	0.8361 mPa·s
323.15 K, 101.33 kPa, x1 = 0.0999	0.9254 mPa·s
323.15 K, 101.33 kPa, x1 = 0.1999	1.102 mPa·s
323.15 K, 101.33 kPa, x1 = 0.2998	1.124 mPa·s
323.15 K, 101.33 kPa, x1 = 0.3982	1.074 mPa·s
323.15 K, 101.33 kPa, x1 = 0.4981	1.006 mPa·s
323.15 K, 101.33 kPa, x1 = 0.5981	0.9385 mPa·s
323.15 K, 101.33 kPa, x1 = 0.6997	0.8833 mPa·s
323.15 K, 101.33 kPa, x1 = 0.7996	0.8408 mPa·s
323.15 K, 101.33 kPa, x1 = 0.9	0.8148 mPa·s
